# Data taken from the supplement of paper PMC8728848.
# The other results are listed elsewhere or left out.
# B1: PX9961X-pdi-531-24-531 (Parabacteroides distasonis) (protein)
# chain: DLTEEIHSSVIAENYYNNAGEVMAAMMRPWGHFCGTMQVAQSPWSCNELSSDCAAWPQKGRHGYDNGDWIRLHRHQWIPTDGQVVDAWKKLFEGIGYANNFLTDTENIDFEALQVPMSKAQAQAEMRVYRAYCYWYVMDMFGTAPICEKIGEINPSSKSRAELFAWIEKELNESIPSLSESKTETYGRVSKWGAYALLARLYLNAEIYTGQARWDDCIAACDELAKGGFALDKKWNDTFRADNDKRSTEIIWSIVYDEVYAKGMGWYQRWLHYAHQTGWDLQSGPWNGLVTQPTFYDSFADNDLRKIEGFLIGKQYPRKVDENGNYYYDTTAEPLKGSEEYNGQDLVFVNYIKSMTEGEENSGARSIKYEIQPGTTGDMNNDWVMFRYSEVIYNKAEALMRKNGGKATQEVVDMINSVRQRSFKAEDWEKAKYTTATLTMDEFLAEKGREFAFEGIRRTDLVRFNKFVTTSWWDKTASNEPKRNIFPIPQRQLDANANLSPNEANSLF
# Experiments:
# Test in all cases: glycan array binding signal (z-score within array); higher = stronger binding
# Conditions in all cases: glycan notation: IUPAC condensed, linker removed
# [1] = molecular target: GlcNAc(b1-4)GlcNAc(b1-4)GlcNAc(b1-4)GlcNAc(b1-4)GlcNAc(b1-4)GlcNAc
# Procedure, shortened: (§1)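 The Consortium for Functional Glycomics database supplied 3228 glycan arrays, of which those lacking an available protein sequence were dropped. The binding signal, a within-array Z-score, was averaged across arrays of the same protein sequence and across linkers. Negative scores can be read as non-binding.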
# [2] = molecular target: GlcNAc(b1-4)[GlcNAc(b1-6)]GalNAc
# Procedure, shortened: as §1
# [3] = molecular target: GlcNAc(b1-6)Gal(b1-4)GlcNAc
# Procedure, shortened: as §1
# GlcNAc(b1-6)GalNAc = molecular target: GlcNAc(b1-6)GalNAc
# Procedure, shortened: as §1
# [4] = molecular target: GlcNAc6S(b1-3)Gal(b1-4)GlcNAc
# Procedure, shortened: as §1
# Kdn(a2-3)Gal(b1-3)GalNAc = molecular target: Kdn(a2-3)Gal(b1-3)GalNAc
# Procedure, shortened: as §1
# Kdn(a2-3)Gal(b1-3)GlcNAc = molecular target: Kdn(a2-3)Gal(b1-3)GlcNAc
# Procedure, shortened: as §1
# Kdn(a2-3)Gal(b1-4)Glc = molecular target: Kdn(a2-3)Gal(b1-4)Glc
# Procedure, shortened: as §1
# Kdn(a2-3)Gal(b1-4)GlcNAc = molecular target: Kdn(a2-3)Gal(b1-4)GlcNAc
# Procedure, shortened: as §1
# [5] = molecular target: Kdn(a2-3)Gal(b1-4)[Fuc(a1-3)]GlcNAc
# Procedure, shortened: as §1
# Kdn(a2-6)Gal(b1-4)GlcNAc = molecular target: Kdn(a2-6)Gal(b1-4)GlcNAc
# Procedure, shortened: as §1
# [6] = molecular target: Man(a1-2)Man(a1-2)Man(a1-3)Man
# Procedure, shortened: as §1
# [7] = molecular target: Man(a1-2)Man(a1-2)Man(a1-6)[Man(a1-3)]Man
# Procedure, shortened: as §1
# Man(a1-2)Man(a1-3)Man = molecular target: Man(a1-2)Man(a1-3)Man
# Procedure, shortened: as §1
# [8] = molecular target: Man(a1-2)Man(a1-3)[Man(a1-2)Man(a1-6)]Man
# Procedure, shortened: as §1
# [9] = molecular target: Man(a1-2)Man(a1-3)[Man(a1-2)Man(a1-6)]Man(a1-6)[Man(a1-2)Man(a1-2)Man(a1-3)]Man
# Procedure, shortened: as §1
# [10] = molecular target: Man(a1-2)Man(a1-3)[Man(a1-2)Man(a1-6)]Man(a1-6)[Man(a1-2)Man(a1-2)Man(a1-3)]Man(b1-4)GlcNAc(b1-4)GlcNAc
# Procedure, shortened: as §1
# [11] = molecular target: Man(a1-2)Man(a1-3)[Man(a1-6)]Man(a1-6)[Man(a1-2)Man(a1-3)]Man(b1-4)GlcNAc(b1-4)GlcNAc
# Procedure, shortened: as §1
# [12] = molecular target: Man(a1-2)Man(a1-6)[Man(a1-3)]Man(a1-6)[Man(a1-2)Man(a1-2)Man(a1-3)]Man
# Procedure, shortened: as §1
# [13] = molecular target: Man(a1-2)Man(a1-6)[Man(a1-3)]Man(a1-6)[Man(a1-2)Man(a1-2)Man(a1-3)]Man(b1-4)GlcNAc(b1-4)GlcNAc
# Procedure, shortened: as §1
# Man(a1-3)[Man(a1-6)]Man = molecular target: Man(a1-3)[Man(a1-6)]Man
# Procedure, shortened: as §1
# [14] = molecular target: Man(a1-3)[Man(a1-6)]Man(a1-6)[Man(a1-2)Man(a1-3)]Man(b1-4)GlcNAc(b1-4)GlcNAc
# Procedure, shortened: as §1
# [15] = molecular target: Man(a1-3)[Man(a1-6)]Man(a1-6)[Man(a1-3)]Man
# Procedure, shortened: as §1
# [16] = molecular target: Man(a1-3)[Man(a1-6)]Man(a1-6)[Man(a1-3)]Man(b1-4)GlcNAc(b1-4)GlcNAc
# Procedure, shortened: as §1
# [17] = molecular target: Man(a1-3)[Man(a1-6)]Man(b1-4)GlcNAc(b1-4)GlcNAc
# Procedure, shortened: as §1
# [18] = molecular target: Man(a1-3)[Man(a1-6)]Man(b1-4)GlcNAc(b1-4)[Fuc(a1-6)]GlcNAc
# Procedure, shortened: as §1
# Man(a1-6)Man = molecular target: Man(a1-6)Man
# Procedure, shortened: as §1
# Man(b1-4)GlcNAc = molecular target: Man(b1-4)GlcNAc
# Procedure, shortened: as §1
# MurNAc(b1-4)GlcNAc = molecular target: MurNAc(b1-4)GlcNAc
# Procedure, shortened: as §1
# Neu5Ac(a2-3)Gal = molecular target: Neu5Ac(a2-3)Gal
# Procedure, shortened: as §1
# [19] = molecular target: Neu5Ac(a2-3)Gal(b1-3)GalNAc
# Procedure, shortened: as §1
# [20] = molecular target: Neu5Ac(a2-3)Gal(b1-3)GalNAc(b1-3)Gal(a1-4)Gal(b1-4)Glc
# Procedure, shortened: as §1
# [21] = molecular target: Neu5Ac(a2-3)Gal(b1-3)GalNAc(b1-4)[Neu5Ac(a2-3)]Gal(b1-4)Glc
# Procedure, shortened: as §1
# [22] = molecular target: Neu5Ac(a2-3)Gal(b1-3)GalNAc(b1-4)[Neu5Ac(a2-8)Neu5Ac(a2-3)]Gal(b1-4)Glc
# Procedure, shortened: as §1
# [23] = molecular target: Neu5Ac(a2-3)Gal(b1-3)GalNAc6S
# Procedure, shortened: as §1
# [24] = molecular target: Neu5Ac(a2-3)Gal(b1-3)GlcNAc
# Procedure, shortened: as §1
# [25] = molecular target: Neu5Ac(a2-3)Gal(b1-3)GlcNAc(b1-2)Man
# Procedure, shortened: as §1
binder,measurement,setting,value
B1,glycan array binding signal (z-score),[1],-0.616
same,glycan array binding signal (z-score),[2],0.25
same,glycan array binding signal (z-score),[3],0.181
same,glycan array binding signal (z-score),GlcNAc(b1-6)GalNAc,0.172
same,glycan array binding signal (z-score),[4],-0.633
same,glycan array binding signal (z-score),Kdn(a2-3)Gal(b1-3)GalNAc,0.344
same,glycan array binding signal (z-score),Kdn(a2-3)Gal(b1-3)GlcNAc,-0.169
same,glycan array binding signal (z-score),Kdn(a2-3)Gal(b1-4)Glc,-0.409
same,glycan array binding signal (z-score),Kdn(a2-3)Gal(b1-4)GlcNAc,-0.114
same,glycan array binding signal (z-score),[5],0.216
same,glycan array binding signal (z-score),Kdn(a2-6)Gal(b1-4)GlcNAc,0.029
same,glycan array binding signal (z-score),[6],-0.732
same,glycan array binding signal (z-score),[7],-0.353
same,glycan array binding signal (z-score),Man(a1-2)Man(a1-3)Man,0.152
same,glycan array binding signal (z-score),[8],-0.243
same,glycan array binding signal (z-score),[9],-0.287
same,glycan array binding signal (z-score),[10],-0.429
same,glycan array binding signal (z-score),[11],-0.748
same,glycan array binding signal (z-score),[12],-0.351
same,glycan array binding signal (z-score),[13],0.105
same,glycan array binding signal (z-score),Man(a1-3)[Man(a1-6)]Man,0.478
same,glycan array binding signal (z-score),[14],-0.453
same,glycan array binding signal (z-score),[15],0.49
same,glycan array binding signal (z-score),[16],-0.382
same,glycan array binding signal (z-score),[17],-0.64
same,glycan array binding signal (z-score),[18],-0.897
same,glycan array binding signal (z-score),Man(a1-6)Man,0.002
same,glycan array binding signal (z-score),Man(b1-4)GlcNAc,0.081
same,glycan array binding signal (z-score),MurNAc(b1-4)GlcNAc,-0.562
same,glycan array binding signal (z-score),Neu5Ac(a2-3)Gal,-0.889
same,glycan array binding signal (z-score),[19],-0.127
same,glycan array binding signal (z-score),[20],-0.098
same,glycan array binding signal (z-score),[21],-0.471
same,glycan array binding signal (z-score),[22],0.292
same,glycan array binding signal (z-score),[23],-0.9
same,glycan array binding signal (z-score),[24],-0.482
same,glycan array binding signal (z-score),[25],-0.3
